Source: paper PMC4336329 (PLoS ONE, 2015)
Among all 310,000 compounds or so, about 2,200 (0.71%) showed an effect of 50% or more. Effects have a minus sign here. This is one part of the list.

molecular target: human ether-à-go-go-related gene (hERG) potassium channel (human, UniProt Q12809); assay: primary screen, population patch clamp on CHO cells stably expressing hERG
Sequence (Q12809 whole entry, looked up): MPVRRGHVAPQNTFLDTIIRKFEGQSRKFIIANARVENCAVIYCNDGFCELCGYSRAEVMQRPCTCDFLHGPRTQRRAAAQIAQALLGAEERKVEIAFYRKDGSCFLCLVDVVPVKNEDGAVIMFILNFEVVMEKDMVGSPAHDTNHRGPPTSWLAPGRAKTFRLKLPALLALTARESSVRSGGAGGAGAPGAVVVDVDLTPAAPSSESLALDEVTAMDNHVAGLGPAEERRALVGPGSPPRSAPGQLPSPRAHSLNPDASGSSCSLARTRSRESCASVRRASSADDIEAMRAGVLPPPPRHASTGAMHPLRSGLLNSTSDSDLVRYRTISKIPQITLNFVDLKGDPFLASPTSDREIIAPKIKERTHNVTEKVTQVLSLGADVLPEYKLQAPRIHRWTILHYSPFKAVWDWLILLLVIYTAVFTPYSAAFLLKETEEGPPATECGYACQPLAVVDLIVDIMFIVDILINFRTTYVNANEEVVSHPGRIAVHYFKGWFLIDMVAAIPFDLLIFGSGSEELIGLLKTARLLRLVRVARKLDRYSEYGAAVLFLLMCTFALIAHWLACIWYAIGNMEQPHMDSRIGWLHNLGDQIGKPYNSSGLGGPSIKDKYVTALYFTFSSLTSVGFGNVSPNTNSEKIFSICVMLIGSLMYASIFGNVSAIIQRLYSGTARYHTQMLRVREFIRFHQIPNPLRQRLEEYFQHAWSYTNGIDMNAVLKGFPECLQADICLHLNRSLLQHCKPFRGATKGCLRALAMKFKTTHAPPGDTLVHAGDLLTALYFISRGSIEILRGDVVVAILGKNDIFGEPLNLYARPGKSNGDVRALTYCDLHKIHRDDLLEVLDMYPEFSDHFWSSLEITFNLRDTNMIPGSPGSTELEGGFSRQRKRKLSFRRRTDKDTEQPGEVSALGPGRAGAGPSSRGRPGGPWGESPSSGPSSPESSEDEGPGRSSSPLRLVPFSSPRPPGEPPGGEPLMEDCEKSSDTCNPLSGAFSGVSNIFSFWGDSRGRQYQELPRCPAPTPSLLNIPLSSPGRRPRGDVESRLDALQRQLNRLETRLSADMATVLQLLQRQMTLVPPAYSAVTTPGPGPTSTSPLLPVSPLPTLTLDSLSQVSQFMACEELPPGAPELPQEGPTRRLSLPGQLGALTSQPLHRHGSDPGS

Row | SMILES | hERG current change (%, negative = inhibition) at 1uM [%]
1 | Cc1ccccc1NC(=O)Cc1nc(COC(=O)c2ccc(Cl)nc2)cs1 | 10.4
2 | Clc1ccc2nc(-c3ccccn3)c(Nc3ccc4c(c3)OCO4)n2c1 | 4.05
3 | COc1ccc(NC(=O)c2sc3ncnc(N4CCN(c5ccccn5)CC4)c3c2C)cc1Cl | 13.6
4 | Cc1nc(C)c(-c2nnc(-c3cccc(S(=O)(=O)N(C)C)c3)o2)cc1C(=O)NN | 13.5
5 | CCOC(=O)c1sc(NC(=O)OC)c(C(=O)OC)c1C | 17.2
6 | Cc1ccc2cc(C)c(SCC(=O)NCc3ccco3)nc2c1 | 6.98
7 | CC(C)n1c(=O)c(C=Nc2ccc(F)cc2)c(O)n(Cc2ccco2)c1=O | 8.4
8 | CC1Oc2ccccc2OC1C(=O)Nc1nccs1 (centres unmarked) | 17
9 | COc1ccc(Cl)cc1NC(=O)C(C)Sc1nnc(C2CC2)n1C1CC1 (centres unmarked) | -10.5
10 | Cc1nn(CC(=O)c2cccc(Cl)c2)c(C)c1[N+](=O)[O-] | 6.41
11 | CC(C(=O)Nc1ccc(Cl)cc1)c1ncc(C(F)(F)F)cc1Cl (centres unmarked) | 3.36
12 | Cc1cc2cc(CNC(=O)CCC(=O)O)ccc2n1C | 13.2
13 | Cc1ccc(NC(=O)C2C3CCC(O3)C2C(=O)O)cc1Cl (centres unmarked) | 15.2
14 | COC(=O)[C@H](CC(C)C)NC(=O)c1cc2c(cn1)[nH]c1ccccc12 | 8.82
15 | COC(=O)COc1cc(Br)c(/C=C2/SC(=O)N(CC(=O)N3CCCC3)C2=O)cc1OC | 6.42
16 | CCc1ccc(OCCNC(=O)c2cccs2)cc1 | -1.84
17 | O=c1cc(-c2ccccc2)nc2nc(COc3ccccc3)[nH]n12 | 0.79
18 | COC(=O)C1=C(c2cc3ccccc3s2)C[C@@H]2CC[C@H]1N2C(=O)NCCS(C)=O (some centres unmarked) | 10.8
19 | O=C(CNC(=O)c1cccs1)NCC(=O)OCc1ccc(Cl)cc1 | -4.11
20 | C=C(C)COc1ccc(-c2n[nH]c(C)c2-c2ccc(OC)c(OC)c2)c(O)c1 | 16.4
21 | Cc1ccc(S(=O)CCNC(=O)Cc2ccccc2)cc1 (centres unmarked) | 18.1
22 | CC1CCN(C(=O)CCc2nnc3ccc(N4CCC5(CC4)OCCO5)nn23)CC1 | 14.4

Row | SMILES | hERG current change (%, negative = inhibition) at 1uM [%]
23 | NC(=O)C1CCN(C(=O)c2ccc(OCC(=O)Nc3cccc(C(F)(F)F)c3)cc2)CC1 | 4.73
24 | COc1ccc(-c2nnc(SCC(=O)c3cccs3)o2)cc1 | -5.02
25 | CC1(c2nnc(-c3ccccc3)o2)CC(c2c(Cl)cccc2Cl)=NO1 (centres unmarked) | 18.7
26 | O=C(OCC(=O)c1c[nH]c2ccccc12)c1ccco1 | 12.3
27 | Cc1cccc(NC(=O)CCC(=O)N/N=C/c2cc([N+](=O)[O-])ccc2O)c1 | 10.4
28 | Cc1ccc(C(=O)N/C(=C\c2ccc(-c3cccc([N+](=O)[O-])c3)o2)C(=O)NCCCN2CCOCC2)cc1 | -74.7
29 | COc1ccc(-n2nc(C(=O)NCC(=O)NCC3COc4ccccc4O3)c3ccccc3c2=O)cc1 (centres unmarked) | 9.18
30 | COc1ccc(N(C2CSC2)S(=O)(=O)c2ccccc2)cc1 | 11.6
31 | Cc1ccc(OCC(=O)NCCNC(=O)c2ccncc2)cc1C | 13.3
32 | CCCc1cc(=O)oc2cc(C)cc(OCC(=O)N3CCC(C(N)=O)CC3)c12 | -1.68
33 | COCCN(CCOC)c1cc(C)c(C#N)c2nc3ccccc3n12 | -1.57
34 | CC(C)CCN1C(=O)c2ccc(C(=O)Nc3c[nH]c(=O)[nH]c3=O)cc2C1=O | 15.6
35 | Cn1c(SCc2ccc(Br)cc2)nnc1-c1ccncc1 | -3.81
36 | C/C(=N\Nc1ccc(C(=O)O)cc1)c1ccc(S(=O)(=O)NCc2ccco2)cc1 | 7.08
37 | CN(C)CCOC(=O)C12CC3(C)CC(C)(CC(C)(C3)C1)C2.Cl | 4.49
38 | Cc1ccc2c(c1)cc(C(=O)N[C@@H](Cc1ccccc1)C(=O)O)n2C | 10.4
39 | Clc1ccc(-n2cc(COCc3ccccc3)nn2)cc1 | -9.69
40 | Clc1ccc(C(c2ccccc2Cl)C(Cl)Cl)cc1 (centres unmarked) | 10.5
41 | Cn1c(=O)c(Cc2ccccc2)c(O)c2ccccc21 | 6.05
42 | CC(C)OC(=O)/C(=C\c1cccnc1)NC(=O)c1ccccc1 | 8.3
43 | Cc1ccc(C(=O)NCc2cccnc2)cc1S(=O)(=O)Nc1ccccc1 | 10.4
44 | Cc1ccc(C)c(-c2ccc(=O)n(Cc3c(F)cccc3Cl)n2)c1 | 29.7

Row | SMILES | hERG current change (%, negative = inhibition) at 1uM [%]
45 | Cc1cccc(N(C(=O)c2csnn2)C(C(=O)NCc2ccccc2)c2ccncc2)c1 (centres unmarked) | -3.14
46 | CC(=O)Nc1cc(C(=O)NCCN2CCN(Cc3ccccc3)CC2)ccc1Sc1ccc(C)cc1 | -22.5
47 | COc1ccc(CCN2C(=O)CC(N3CCC(C(N)=O)CC3)C2=O)cc1OC (centres unmarked) | 12.9
48 | O=C1C2C(c3ccccc3)CC=CC2[C@H](c2ccc3ccccc3c2)N1Cc1ccccc1 (some centres unmarked) | 18.2
49 | COC(=O)C(NC(=O)CCC(=O)NC(C(=O)OC)c1ccccc1)c1ccccc1 (centres unmarked) | 8.72
50 | Cc1cc(=O)oc(C)c1C(=O)NCc1c(F)cc(F)cc1F | -8.53
51 | O=C(N/N=C/c1cc(Br)cc(Br)c1O)c1ccncc1 | 5.33
52 | Cc1ccc(S(=O)(=O)N2CCN(C(=O)COC(=O)Cc3ccccc3)CC2)c(C)c1 | 10
53 | Cc1ccc2c(c1)C1CN(C)CCC1N2C(=O)c1ccc(Br)o1 (centres unmarked) | 2.7
54 | CCOc1ccccc1N1CCN(C(=O)Nc2cccc(Cl)c2)CC1 | 9.41
55 | Cc1n[nH]c(=S)n1/N=C/c1ccccc1OCc1ccc(Cl)cc1 | 6.28
56 | C/C=C(\C)CN1CCC(n2nccc2NC(=O)c2ccc(OC)cc2)CC1 | 8.77
57 | Cc1ccc(C)c(NC(=S)NC(NC(=O)OCc2ccccc2)C(Cl)(Cl)Cl)c1 (centres unmarked) | 8.68
58 | CCOc1ccc(CN(C)C(=O)CNC(=O)c2cc(OC)c(OC)c(OC)c2)cc1 | 14.1
59 | COc1ccccc1C1=Nc2cccc3cccc(c23)N1 | 11.1
60 | CC(NC(=O)c1ccccc1)C(=O)NNC(=O)c1ccccc1Cl (centres unmarked) | 7.02
61 | CCOC(=O)N1CCN(C(=O)c2ccc(S(=O)(=O)c3ccc(C)cc3)c(NC(C)=O)c2)CC1 | 3.85
62 | O=C(c1cccs1)N1CCC(c2nc3c(nnn3Cc3cccc(Cl)c3)c(=O)[nH]2)CC1 | 6
63 | CC(C)(C)OC(=O)NCCCC1=CC2=CC(=O)C(C)(OC(=O)C3CCCC3)C(=O)C2=CO1 (centres unmarked) | 3.89
64 | Cc1ccc(NC(=O)c2ccc(Cl)c(N3C(=O)CCC3=O)c2)cc1 | 15
65 | CCOC(=O)COc1cc2oc(=O)cc(C)c2cc1[N+](=O)[O-] | -3.43
66 | Cc1c(C)c(C)c(S(=O)(=O)N2CCC3(CC2)OCCO3)c(C)c1C | -1.4

Row | SMILES | hERG current change (%, negative = inhibition) at 1uM [%]
67 | Cc1ccccc1NC(=O)CCc1nnc2ccc(N3CCC4(CC3)OCCO4)nn12 | 15.3
68 | CC(c1nnc(SCC(=O)N(C)C2CCS(=O)(=O)C2)n1-c1ccccc1)N(C)C (centres unmarked) | 3.36
69 | Cc1oc2c(c1C(=O)Nc1ccc(C(=O)O)cc1)CCCC2 | 8.34
70 | O=C(Cc1csc(-c2ccccc2)n1)NCc1ccccc1F | 7.58
71 | O=C(/C=C/c1ccc[nH]1)c1ccc(F)cc1 | 16.7
72 | COc1cccc(CNS(=O)(=O)c2c(C)nc3scc(C)n3c2=O)c1 | 16.6
73 | Fc1ccccc1C1c2[nH]c3ccccc3c2CCN1Cc1ccoc1 (centres unmarked) | -15.8
74 | CCOC(=O)c1ccc(CS(=O)c2ccc(Cl)cc2)o1 (centres unmarked) | 1.53
75 | Cc1ccc(Cl)cc1NC(=O)COC(=O)c1ccccc1O | 8.66
76 | CC(=O)N(C)c1ccc(OCC(O)Cn2c3ccc(Cl)cc3c3cc(Cl)ccc32)cc1 (centres unmarked) | -1.16
77 | COc1ccc(C(=O)Nc2cccnc2Sc2ccc(Cl)cc2)cc1 | 5.4
78 | O=C(Nc1ccc(O)c(C(=O)O)c1)c1cccc(NC(=O)c2ccco2)c1 | 6.69
79 | CSc1nc(C)c(Cc2c(F)cccc2Cl)c(=O)[nH]1 | 15.2
80 | COC(=O)c1ccc(=O)c2nc3/c(=C/O)c(O)cc(=O)c3[nH]c12 | -3
81 | CCc1nn(CC(=O)N2CCCCCC2)c(=O)c2cc3ccccc3n12 | 6.68
82 | CN(C)S(=O)(=O)c1ccc(NC(=O)c2cccnc2)cc1 | 7.75
83 | CC(C1CC1)N(Cc1ccccc1)C(=O)NC(=O)c1ccc(F)cc1 (centres unmarked) | 9.3
84 | Cc1nonc1OCCNc1ccc([N+](=O)[O-])cc1[N+](=O)[O-] | -6.21
85 | CC1CCCCN1Cc1c(O)ccc2c(=O)c(-c3ccccc3)coc12 (centres unmarked) | -6.67
86 | O=C(CSc1nnc(COc2ccccc2Cl)o1)Nc1ccccc1 | 7.62
